Reference: paper PMC4336329 (PLoS ONE, 2015)
About 14,000 (4.5%) of roughly 310,000 compounds showed an effect of 50% or more. The effect is printed as a negative number. This is one part of the list.

target: human ether-à-go-go-related gene (hERG) potassium channel (human, UniProt Q12809); assay: primary screen, population patch clamp on CHO cells stably expressing hERG
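Note: peak tail current of the secondary pulse compared with the same well before compound.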

Chain of human ether-à-go-go-related gene (hERG) potassium channel (Q12809 whole entry, looked up): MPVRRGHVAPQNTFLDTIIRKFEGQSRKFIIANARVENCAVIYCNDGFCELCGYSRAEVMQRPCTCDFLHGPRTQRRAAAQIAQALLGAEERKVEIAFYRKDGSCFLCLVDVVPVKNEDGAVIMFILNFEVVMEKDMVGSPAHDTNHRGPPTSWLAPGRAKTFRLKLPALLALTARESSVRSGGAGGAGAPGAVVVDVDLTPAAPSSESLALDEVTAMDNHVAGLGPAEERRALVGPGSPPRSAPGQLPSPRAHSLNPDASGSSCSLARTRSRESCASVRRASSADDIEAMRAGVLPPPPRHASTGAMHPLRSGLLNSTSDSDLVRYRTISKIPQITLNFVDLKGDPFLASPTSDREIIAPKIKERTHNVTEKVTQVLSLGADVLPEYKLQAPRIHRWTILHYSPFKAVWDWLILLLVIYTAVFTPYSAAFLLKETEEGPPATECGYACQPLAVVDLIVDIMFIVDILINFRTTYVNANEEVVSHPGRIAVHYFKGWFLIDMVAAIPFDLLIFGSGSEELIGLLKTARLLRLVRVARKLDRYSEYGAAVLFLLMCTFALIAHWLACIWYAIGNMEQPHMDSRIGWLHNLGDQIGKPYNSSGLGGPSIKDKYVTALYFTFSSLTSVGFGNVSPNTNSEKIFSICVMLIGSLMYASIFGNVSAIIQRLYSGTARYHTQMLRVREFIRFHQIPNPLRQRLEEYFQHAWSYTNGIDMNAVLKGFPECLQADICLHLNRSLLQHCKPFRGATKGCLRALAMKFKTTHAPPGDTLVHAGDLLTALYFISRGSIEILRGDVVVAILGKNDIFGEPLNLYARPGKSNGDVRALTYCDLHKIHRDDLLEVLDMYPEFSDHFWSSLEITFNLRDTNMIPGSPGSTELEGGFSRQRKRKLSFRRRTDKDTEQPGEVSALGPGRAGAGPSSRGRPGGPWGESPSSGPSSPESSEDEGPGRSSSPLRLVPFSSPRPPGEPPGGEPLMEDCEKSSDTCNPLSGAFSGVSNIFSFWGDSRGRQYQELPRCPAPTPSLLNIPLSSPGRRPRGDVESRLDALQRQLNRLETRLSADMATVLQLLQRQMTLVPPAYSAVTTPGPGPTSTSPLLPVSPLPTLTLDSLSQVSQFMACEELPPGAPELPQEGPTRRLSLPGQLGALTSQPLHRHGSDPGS

Structure (SMILES) | hERG current change (%, negative = inhibition) at 10uM [%]
COC(=O)c1cc(OC)c(OC)cc1NC(=O)Nc1ccccc1OC | 4.31
COc1ccc(OCc2cc(C(=O)NCCN3CCCC(O)C3)no2)c(Cl)c1 (stereo not shown) | -28.5
CC1=C/C(=N\N=C2\NC(=O)C(CC(=O)Nc3ccccc3)S2)CC(C)(C)C1 (stereo not shown) | 6.79
CCN(CC)c1ccc(/C=C(/C#N)c2nc3ccc(C)cc3[nH]2)c(OC(C)C)c1 | 23.9
COc1cc(CO)ccc1Oc1nc2ccccc2n2cnnc12 | 10.7
NC(=O)N=Nc1c(O)[nH]c2ccc([N+](=O)[O-])cc12 | 45.3
CC(C)CN(C(=O)COC(=O)Cc1n[nH]c(=O)c2ccccc12)C1CCS(=O)(=O)C1 (stereo not shown) | 10.6
O=C(O)c1ccc(COc2ccc3c4c(c(=O)oc3c2)CCC4)o1 | 21.4
O=S(=O)(N/N=C/c1ccc2c(c1)OCO2)c1ccc(Br)cc1 | 5.05
CN(C)C(CNC(=O)c1ccc(S(=O)(=O)Nc2ccccc2)cc1)c1ccco1 (stereo not shown) | 9.68
Cc1[nH]c2ccccc2c1C1C(c2ccccc2)=NN=C(C(C)C)N1O (stereo not shown) | 1.39
CS(=O)(=O)N(Cc1ccc(C(=O)NCCSc2ccccn2)cc1)c1ccccc1 | 2.06
CN=C(Nc1cc(Cl)ccc1Cl)SC1CC(=O)N(c2ccc(C(=O)OC)cc2)C1=O (stereo not shown) | 9.69
O=C(NNC(=S)Nc1ccccc1)c1ccccc1[N+](=O)[O-] | 26.2
CCC(C)(c1ccc(C=O)s1)c1ccc(C=O)s1 | -39.4
CCn1c(=O)cc(OCC(=O)NCC2CCCO2)c2ccccc21 (stereo not shown) | 20
Nc1cc(=O)[nH]c(SCC(=O)Nc2cc([N+](=O)[O-])ccc2Cl)n1 | 26
CCOC(=O)C1CCN(C(=O)CSc2nc(N)cc(=O)[nH]2)CC1 | 19
COc1cc(OC)c(C2C3=C(CCCC3=O)Nc3nc4ccccc4n32)cc1OC (stereo not shown) | 4.1
C/C(=C\C(=O)c1ccccc1)NNc1nc2ccccc2s1 | -1.63
CCN(CC)C(=O)c1c2c(nc3ccccc13)-c1ccccc1CC2 | -12.6
COc1ccc(NCc2nnc(SCC(=O)Nc3ccc(OC)cc3)n2C)cc1 | -62.3

Structure (SMILES) | hERG current change (%, negative = inhibition) at 10uM [%]
COc1ccc(/C(O)=C2/C(=O)C(=O)N(CCN3CCOCC3)C2c2ccc(C)cc2)cc1 (stereo not shown) | -14.1
Cc1ccc(CS(=O)Cc2ccc(C(=O)N3CCN(c4ccccc4)CC3)o2)cc1 (stereo not shown) | -14.8
CN(C)CCCNCCCCNC(=O)/C=N/O | 0.266
CN(C)S(=O)(=O)CC12CCC(CC1=O)C2(C)C (stereo not shown) | 5.43
N#Cc1ccccc1Cn1cc(C(=O)c2ccccc2F)c2ccccc21 | 4.67
CC(C)(O)C#Cc1ccc(C(=O)N2CCN(c3ccc(Cl)cc3)CC2)cc1 | -9.19
COc1cc(/C=N\NC(=O)c2ccc(C)nc2)ccc1OC(=O)c1cccc(F)c1 | -8.51
CC(C)CCNc1nc2c(c(=O)n(Cc3cccc(F)c3)c(=O)n2C)n1C | -11.9
COc1cccc(Nc2nnc(SCC3CCCCO3)s2)c1 (stereo not shown) | -21.1
CC(=O)N1CCOc2ccc(S(=O)(=O)Nc3ccc(Cl)cn3)cc21 | 15.7
COc1ccc(/C=N/NC(=O)CCn2c3ccccc3c3ccccc32)cc1O | 5.18
O=[N+]([O-])c1cccc(-c2nnc(C34CC5CC(CC(C5)C3)C4)o2)c1 | 9.11
CN1CCc2nc(SCC(=O)Nc3ccc(F)cc3)c(C#N)cc2C1 | -22.7
O=C(O)CCCC(=O)Nc1ccc(C(=O)N2CCCCC2)c(Cl)c1 | 4.23
O=C(NCc1ccco1)C1(c2ccc(Br)cc2)CCCC1 | 10.6
CCN1CCN(S(=O)(=O)c2ccc(Br)s2)CC1 | -5.03
O=C(CSc1nnc(NC(=O)c2ccccc2Cl)s1)NC1CC1 | 4.44
COc1ccc(NC(=O)CN(C)C(=O)CC2CCCC2)cc1 | 3.53
CCC(C)c1ccc(NC(=O)c2[nH]c(C)c(C(C)=O)c2C)cc1 (stereo not shown) | -18.5
COc1ccc(C(=O)NC(C)CCCC(C)(C)O)cc1OC1CCN(C(C)=O)CC1 (stereo not shown) | 14.5
N/C(=N\OS(=O)(=O)c1ccc(Cl)cc1)c1ccncc1 | -2.67
Cc1nnc(SCC(=O)NNC(=O)c2ccc(Cl)cc2)n1CC1CCCO1 (stereo not shown) | -3.08

Structure (SMILES) | hERG current change (%, negative = inhibition) at 10uM [%]
COc1cc(C(CCN2CCCC(C)C2)c2c(OC)cc(OC)c3c2OC(=O)CC3c2ccc(N(C)C)cc2)cc(OC)c1OC (stereo not shown) | -30.3
CCOc1ccccc1NC(=O)c1ccc2c(c1)C(=O)N(CC(C)C)C2=O | 11.1
Cc1cc(-c2ccc(S(=O)(=O)N3CCN(C)CC3)s2)on1 | -5.55
CCCNc1nc(N)nc(-c2cc(Cl)ccc2OC)n1 | 9.18
COc1cc(C2N(c3ccccn3)C(=O)C3CCCN32)cc(OC)c1OC (stereo not shown) | -2.76
CC1OC2(C)OC(=N)C1(C#N)C(C#N)(C#N)C2c1ccccc1 (stereo not shown) | 32.2
O=C(Nc1cccc(NC(=O)c2ccc(-c3ccc(Br)cc3)o2)c1)c1ccccc1 | -1.85
CCC(Cc1ccccc1)NC(=O)c1ccc2nc(N3CCOCC3)sc2c1 (stereo not shown) | -46.5
CCOc1ccc(NS(=O)(=O)c2ccc(SC)cc2)cc1 | -18.7
COc1ccc(NC(=O)CCc2nnc3ccc(NCc4ccco4)nn23)cc1 | 1.15
Clc1ccc(-c2ccn[nH]2)cc1 | 3.54
COCCOC(=O)c1c(C)nc(SCC(=O)Nc2ccc(C)cc2)c(C#N)c1-c1ccco1 | 10.5
CCN1C(=O)[C@@H]2[C@H](C1=O)[C@@H]1C(=O)Nc3ccccc3C(=O)N1[C@@H]2c1ccccc1 | 0.807
CN(CC1CCCN(CCc2ccc(Cl)cc2)C1)C(=O)c1ccoc1 (stereo not shown) | -85.7
COC(=O)c1ccc(NC(=O)c2ccc(C)cc2)o1 | -0.404
O=C(O)CNC(=S)N(Cc1ccco1)Cc1ccccc1Cl | 6.98
CCc1noc(C)c1C(=O)NNC(=O)c1ccc(Br)cc1 | 15.9
Cc1noc(C)c1C(=O)Nc1cc(Cl)ccc1N1CCOCC1 | -0.777
O=C(c1cc(C2CC2)nc2ccccc12)N1N=C(C(F)F)CC1(O)C(F)F (stereo not shown) | -18.3
Cc1cc2c3c(c1)C1(C(=O)N3C(C)(C)CC2C)C(C#N)=C(N)OC2=C1C(=O)CC(C)(C)C2 (stereo not shown) | 5.48
O=C(CCS(=O)(=O)c1ccccc1)Nc1ccc(N2CCN(Cc3ccccc3)CC2)cc1 | -15.1
COc1ccc(N2CCN(CCNC(=O)c3c(C)cc(=O)oc3C)CC2)cc1 | -12.2

Structure (SMILES) | hERG current change (%, negative = inhibition) at 10uM [%]
CCOC(=O)C(NC(C)=O)C(O)c1ccc([N+](=O)[O-])cc1 (stereo not shown) | -6.32
COc1ccccc1N1CCN(CC(O)COCc2cccs2)CC1.Cl (stereo not shown) | -19.8
COc1cc2oc(=O)cc(C)c2c(OC)c1OC | 17.9
CCOc1ccc(NC(=O)c2ccc3c(c2)OCCO3)cc1S(=O)(=O)N(CC)CC | -22.4
COc1ccccc1N(CC(=O)Nc1ccccc1C(=O)NC(C)C)S(C)(=O)=O | 10.9
O=C(OC(C(=O)NC1CCCC1)c1cccnc1)C1=Cc2ccccc2OC1 (stereo not shown) | -4.75
COCCCNC(=O)CCCn1c(=O)c2ccccc2n(CC(=O)Nc2c(C)cc(C)cc2C)c1=O | -0.964
O=C(CN1CCCCC1)NC(=O)NCc1ccccc1 | 14.3
O=C(N/N=C/c1ccc(O)c(O)c1O)/C(=C/c1ccc([N+](=O)[O-])cc1)NC(=O)c1ccccc1 | 12.4
Cl.O=C(O)c1ccc(CN2CCCCC2)o1 | 10.7
O=C(NNS(=O)(=O)c1ccccc1)c1ccncc1 | 15.1
CCCCNC(=O)C(=O)Nc1cc2c3c(c1)CCC(=O)N3CCC2 | 8.48
Cc1ccc(/C=C(\NC(=O)c2ccccc2)C(=O)NCCc2ccccn2)o1 | -12.8
O=C(NCCO)C(=O)Nc1cc2c3c(c1)CC(=O)N3CCC2 | 16.7
CC(C)(C)N=Cc1cc(-c2ccccc2)sc1O | -17.2
COc1ccc(CC(=O)NCC(=O)Nc2ccccc2Br)cc1 | 12
Clc1ccc(NCc2cccnc2)cc1 | -11.6
CN(CC(=O)N1CCN(c2ccccc2)CC1)S(=O)(=O)c1cnc[nH]1 | 15.1
O=C(O/N=C1/CCCc2occc21)c1ccccc1 | 4.19
CCOC(=O)c1nn(-c2ccccc2)c(C#N)c1NC(=O)c1nn(CC)cc1Br | 7.47
Cc1ccc(OCC(=O)N(C)CC(=O)N(CC(C)C)c2c(N)n(CC(C)C)c(=O)[nH]c2=O)c(C)c1 | 16.8
CCC(=O)Nc1ccc(C(=O)Cn2ncc(Cl)c(Cl)c2=O)cc1 | -5.04
